Measured values reported in the supplement of paper PMC10126150.
Values marked as one replicate rest on one cluster of the flow cell; about a third of the high ones do not repeat.
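Further: ATP exposure 15 min at 22 °C before imaging.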

What follows are sequences tested on ATP (assay: switch fluorescence ratio, 500 uM ATP over buffer (Cy3 cluster intensity, sum of 5 cycles each) (fold (ratio)); higher = stronger signal-on switching upon ATP binding; sequences stand for … in TCGTCGGCAGCGTCAGATGTGTATAAGAGACAGTTTTTTTTTTTTTTTTTTTTTTTTT…TC). Conditions: aptamer strand: ATP DNA aptamer (quencher-CACCTGGGGGAGTATTGCGGAGGAAGG + anchor), 100 nM annealed; ATP concentration: 500 uM; one replicate.
In short: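 After annealing to 100 nM quencher-labelled ATP aptamer, Cy3-labelled switching-strand clusters on a modified Illumina MiSeq flow-cell were imaged in selection buffer. A second image followed after 15 min with 500 uM ATP at 22 °C, and five such buffer/ATP cycles were done, each separated by NaOH stripping and re-annealing. The fluorescence ratio, averaged per switch-domain sequence, is summed target-cycle over summed buffer-cycle Cy3 intensity per cluster, with clusters outside 100-1000 RFU excluded.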
In the case of AGGGTGAAGA, the switch fluorescence ratio is reported as 0.973. AGGGTGATGT was tested, and the switch fluorescence ratio was 0.989. Work on AGGGTGGCA yielded a switch fluorescence ratio of 0.99. AGGGTGTATC showed a switch fluorescence ratio of 1.01. For AGGGTTGTTC, the switch fluorescence ratio was 1.01. In the case of AGGTAACGT, the switch fluorescence ratio is reported as 0.97. AGGTAACGTG was tested, and the switch fluorescence ratio was 0.95. With AGGTAAGACA the switch fluorescence ratio was 0.978. AGGTACCAA gave a switch fluorescence ratio of 0.987. With AGGTACCCC the switch fluorescence ratio was 1.07. AGGTAGCCAT gave a switch fluorescence ratio of 0.996. AGGTAGGAAT showed a switch fluorescence ratio of 0.992. In the case of AGGTAGGTT, the switch fluorescence ratio is reported as 0.989. Work on AGGTATCTTT yielded a switch fluorescence ratio of 1.01. Sequence AGGTCAAGAG has a switch fluorescence ratio of 1.02. In the case of AGGTCCGTCG, the switch fluorescence ratio is reported as 1.04. AGGTCCGTTG gave a switch fluorescence ratio of 0.999. For AGGTCGCGGC, the switch fluorescence ratio was 0.988. For AGGTCGTGAT, the switch fluorescence ratio was 0.977. Sequence AGGTCTACA has a switch fluorescence ratio of 1.06. With AGGTCTGCGT the switch fluorescence ratio was 1.03. Work on AGGTCTGGTT yielded a switch fluorescence ratio of 0.964. Work on AGGTGAAGGA yielded a switch fluorescence ratio of 1.01. Sequence AGGTGCAACG has a switch fluorescence ratio of 0.93. AGGTGCGAGC showed a switch fluorescence ratio of 0.954. AGGTGCGAT was tested, and the switch fluorescence ratio was 1.06. Work on AGGTGCGGTG yielded a switch fluorescence ratio of 1.02. For AGGTGGATCG, the switch fluorescence ratio was 0.986. AGGTGGGCAC was tested, and the switch fluorescence ratio was 1.05. Work on AGGTGGTCTT yielded a switch fluorescence ratio of 1.03. AGGTGGTTGG showed a switch fluorescence ratio of 0.981. AGGTGTGACT was tested, and the switch fluorescence ratio was 0.995. AGGTGTGCTG was tested, and the switch fluorescence ratio was 1.02. AGGTTACCAC showed a switch fluorescence ratio of 1.02. With AGGTTAGTAC the switch fluorescence ratio was 1.06. With AGGTTAGTCT the switch fluorescence ratio was 1.04. With AGGTTCGAC the switch fluorescence ratio was 0.998. AGGTTCGCA showed a switch fluorescence ratio of 0.996. Work on AGGTTCGCGC yielded a switch fluorescence ratio of 1.03. For AGGTTCGGCT, the switch fluorescence ratio was 0.974. AGGTTCGTTA showed a switch fluorescence ratio of 0.964. With AGGTTCTTAA the switch fluorescence ratio was 0.991. Sequence AGGTTGACTC has a switch fluorescence ratio of 0.984. For AGGTTGCCAT, the switch fluorescence ratio was 0.973. For AGGTTGTCCA, the switch fluorescence ratio was 1.03. AGGTTTAGAG was tested, and the switch fluorescence ratio was 0.987. AGGTTTGGAA was tested, and the switch fluorescence ratio was 0.975. For AGTAACGATC, the switch fluorescence ratio was 1.02. Work on AGTAAGATC yielded a switch fluorescence ratio of 1.01. Work on AGTAAGCGTC yielded a switch fluorescence ratio of 1. AGTAATGTCT gave a switch fluorescence ratio of 0.988. In the case of AGTACAGGAG, the switch fluorescence ratio is reported as 1.01. AGTACCGTGT showed a switch fluorescence ratio of 1.01. In the case of AGTACCTAGT, the switch fluorescence ratio is reported as 1.01. With AGTACGGGTG the switch fluorescence ratio was 1.1. AGTAGATACC was tested, and the switch fluorescence ratio was 1.02. AGTAGCGGTA was tested, and the switch fluorescence ratio was 0.98. AGTAGCTATA gave a switch fluorescence ratio of 1.12. AGTAGGGATA gave a switch fluorescence ratio of 1.01. AGTAGGTAAG was tested, and the switch fluorescence ratio was 0.984. AGTAGGTACG gave a switch fluorescence ratio of 0.944. In the case of AGTAGGTGCT, the switch fluorescence ratio is reported as 1. Sequence AGTAGTCCCT has a switch fluorescence ratio of 1.03. AGTAGTCGGA was tested, and the switch fluorescence ratio was 1.03. AGTAGTGCGG gave a switch fluorescence ratio of 0.978. AGTATAAG showed a switch fluorescence ratio of 1. AGTATACTAA was tested, and the switch fluorescence ratio was 1. AGTATAGGTC was tested, and the switch fluorescence ratio was 0.978. Work on AGTATATTTG yielded a switch fluorescence ratio of 1.04. AGTATCAACC gave a switch fluorescence ratio of 1.02. With AGTATCATG the switch fluorescence ratio was 0.987. With AGTATCGCTA the switch fluorescence ratio was 1.01. With AGTATCTACA the switch fluorescence ratio was 1.03. Work on AGTATGGTCT yielded a switch fluorescence ratio of 1.02. Sequence AGTATTCGAG has a switch fluorescence ratio of 0.999. In the case of AGTATTTGGG, the switch fluorescence ratio is reported as 0.969. For AGTCAACGCT, the switch fluorescence ratio was 0.96. Sequence AGTCAACGTA has a switch fluorescence ratio of 0.978. AGTCAAGTC gave a switch fluorescence ratio of 1.04. For AGTCACGTCT, the switch fluorescence ratio was 1.04. AGTCACTGT gave a switch fluorescence ratio of 1.02. Sequence AGTCAGACAG has a switch fluorescence ratio of 0.98. Work on AGTCAGACG yielded a switch fluorescence ratio of 0.972. Sequence AGTCAGAGTT has a switch fluorescence ratio of 1. With AGTCAGTCCC the switch fluorescence ratio was 1.05. AGTCATCTTC showed a switch fluorescence ratio of 0.992. AGTCATTATA gave a switch fluorescence ratio of 0.982. AGTCATTCAA gave a switch fluorescence ratio of 1.02. In the case of AGTCCAAGTT, the switch fluorescence ratio is reported as 0.975. AGTCCATCTT was tested, and the switch fluorescence ratio was 1.02. AGTCCCGGGT gave a switch fluorescence ratio of 0.917. With AGTCCGGGGG the switch fluorescence ratio was 1.05. In the case of AGTCCTAAGG, the switch fluorescence ratio is reported as 0.958. With AGTCCTACAT the switch fluorescence ratio was 1.01. Sequence AGTCGAGGTT has a switch fluorescence ratio of 1.01. AGTCGCATGG was tested, and the switch fluorescence ratio was 1.02. AGTCGCTCTG gave a switch fluorescence ratio of 0.936. For AGTCGGGAAT, the switch fluorescence ratio was 0.985. AGTCGGGGAT was tested, and the switch fluorescence ratio was 0.97. Work on AGTCGTGGCG yielded a switch fluorescence ratio of 1. For AGTCTGATT, the switch fluorescence ratio was 0.983. In the case of AGTCTGGTGA, the switch fluorescence ratio is reported as 1.02. With AGTCTTCAA the switch fluorescence ratio was 1.02. Work on AGTCTTCGGA yielded a switch fluorescence ratio of 1.02. For AGTGAAAGCG, the switch fluorescence ratio was 1.06. In the case of AGTGAATGCG, the switch fluorescence ratio is reported as 0.958. For AGTGACCGCA, the switch fluorescence ratio was 1.29. In the case of AGTGAGCGGG, the switch fluorescence ratio is reported as 0.979. AGTGATTGGC gave a switch fluorescence ratio of 0.976. For AGTGCAATCT, the switch fluorescence ratio was 1.05. For AGTGCACAGC, the switch fluorescence ratio was 0.999. With AGTGCCAT the switch fluorescence ratio was 0.96. For AGTGCGACAA, the switch fluorescence ratio was 1.09. In the case of AGTGCGGTCT, the switch fluorescence ratio is reported as 1.05. For AGTGCTTTGC, the switch fluorescence ratio was 1.01. AGTGGATATG gave a switch fluorescence ratio of 0.988. With AGTGGATGCC the switch fluorescence ratio was 1.06. Sequence AGTGGCATAA has a switch fluorescence ratio of 1.06. Sequence AGTGGGCTTG has a switch fluorescence ratio of 0.983. AGTGGTTGG was tested, and the switch fluorescence ratio was 1.03. AGTGTAAG was tested, and the switch fluorescence ratio was 0.955. Sequence AGTGTAATAG has a switch fluorescence ratio of 1.07. In the case of AGTGTCGTCG, the switch fluorescence ratio is reported as 0.969. AGTGTCTAGC gave a switch fluorescence ratio of 0.98. Sequence AGTGTGTGTT has a switch fluorescence ratio of 1.06. With AGTGTGTTAC the switch fluorescence ratio was 1.02. In the case of AGTTAAGGTT, the switch fluorescence ratio is reported as 1. For AGTTCACGT, the switch fluorescence ratio was 0.997. Sequence AGTTCACGTG has a switch fluorescence ratio of 1.06. AGTTCATTAC showed a switch fluorescence ratio of 1.05. AGTTCCAGTC showed a switch fluorescence ratio of 1.04. AGTTCCATAA showed a switch fluorescence ratio of 0.98. AGTTCGAGCT gave a switch fluorescence ratio of 0.974. AGTTCGGCAT gave a switch fluorescence ratio of 0.956. AGTTCGTATT gave a switch fluorescence ratio of 0.985. For AGTTCTAAAA, the switch fluorescence ratio was 0.971. AGTTCTCCTT was tested, and the switch fluorescence ratio was 1.02. For AGTTCTTAAT, the switch fluorescence ratio was 0.978. AGTTGAGTGG showed a switch fluorescence ratio of 0.926. AGTTGATTTA showed a switch fluorescence ratio of 0.97. AGTTGCTAAT showed a switch fluorescence ratio of 0.971. Work on AGTTGGACCA yielded a switch fluorescence ratio of 0.958. AGTTGGATGG was tested, and the switch fluorescence ratio was 0.978. AGTTGGCAGC gave a switch fluorescence ratio of 0.97. Work on AGTTGTGGCC yielded a switch fluorescence ratio of 1.02. Work on AGTTTAGCCC yielded a switch fluorescence ratio of 0.975. In the case of AGTTTAGGAA, the switch fluorescence ratio is reported as 1.02. For AGTTTCAAAG, the switch fluorescence ratio was 1.03. In the case of AGTTTCACCG, the switch fluorescence ratio is reported as 1.04. Work on AGTTTCGACG yielded a switch fluorescence ratio of 1.06. With AGTTTGCAAT the switch fluorescence ratio was 0.949. Sequence AGTTTGCAGC has a switch fluorescence ratio of 0.969. In the case of AGTTTGCCCA, the switch fluorescence ratio is reported as 0.98. Work on AGTTTGCTAT yielded a switch fluorescence ratio of 1.03. Work on AGTTTTATGA yielded a switch fluorescence ratio of 0.944. Sequence ATAAAACTCT has a switch fluorescence ratio of 1.15. Work on ATAAAAGATA yielded a switch fluorescence ratio of 1.01. For ATAAACGACG, the switch fluorescence ratio was 0.98. ATAAAGCA gave a switch fluorescence ratio of 1.02. For ATAAAGCCCT, the switch fluorescence ratio was 0.997. ATAAAGCTGG showed a switch fluorescence ratio of 1.04. In the case of ATAAAGGAGG, the switch fluorescence ratio is reported as 0.978. Work on ATAAAGTTAG yielded a switch fluorescence ratio of 0.977. ATAAATCACG was tested, and the switch fluorescence ratio was 1.13. Sequence ATAACCAATG has a switch fluorescence ratio of 1. Work on ATAACCGAT yielded a switch fluorescence ratio of 1.06. With ATAACCGGGT the switch fluorescence ratio was 1.05. Work on ATAACGCCTT yielded a switch fluorescence ratio of 1.07. Sequence ATAACGCTGG has a switch fluorescence ratio of 0.97. ATAACGCTGT was tested, and the switch fluorescence ratio was 1. Sequence ATAACGGACA has a switch fluorescence ratio of 1.31. In the case of ATAACGGCAC, the switch fluorescence ratio is reported as 2.06. Sequence ATAACGTGTA has a switch fluorescence ratio of 0.987. For ATAACTCAGG, the switch fluorescence ratio was 1.11. ATAACTCGCA gave a switch fluorescence ratio of 1.1. ATAACTTAGC showed a switch fluorescence ratio of 1.05. For ATAACTTGCT, the switch fluorescence ratio was 1.01. For ATAAGAAGGG, the switch fluorescence ratio was 0.968. Sequence ATAAGAATGC has a switch fluorescence ratio of 1. With ATAAGACAGA the switch fluorescence ratio was 1.04. Sequence ATAAGACGGG has a switch fluorescence ratio of 1.01. ATAAGATTCC showed a switch fluorescence ratio of 1.19. In the case of ATAAGCACAA, the switch fluorescence ratio is reported as 1.2. Sequence ATAAGCTTGT has a switch fluorescence ratio of 1.04. Sequence ATAAGTAAAA has a switch fluorescence ratio of 1.05. ATAAGTAGAT was tested, and the switch fluorescence ratio was 0.987. ATAAGTCGGT showed a switch fluorescence ratio of 1. Sequence ATAATCCACC has a switch fluorescence ratio of 1.06. With ATAATCCGTT the switch fluorescence ratio was 1.02. Work on ATAATGGCGT yielded a switch fluorescence ratio of 0.989. Sequence ATAATTAGTT has a switch fluorescence ratio of 1. ATAATTCCCG showed a switch fluorescence ratio of 1. With ATAATTTTCC the switch fluorescence ratio was 1.13. For ATAATTTTTA, the switch fluorescence ratio was 0.984. ATACAACAAA was tested, and the switch fluorescence ratio was 1.02. Sequence ATACAAGATT has a switch fluorescence ratio of 1. ATACAAGTAA gave a switch fluorescence ratio of 1.08. Work on ATACAGAGCC yielded a switch fluorescence ratio of 1.04. ATACAGAGGT showed a switch fluorescence ratio of 1.04. Sequence ATACATCAGG has a switch fluorescence ratio of 1.14. In the case of ATACCAAGGG, the switch fluorescence ratio is reported as 0.964.
